How the values were obtained:
[1] = target: T1, Platelet Fibrinogen Receptor αIIbβ3 (UniProt P08514 32-1039; P05106 27-788); assay: inhibition of hu Fibrinogen-Ru binding
[2] = target: T1, Platelet Fibrinogen Receptor αIIbβ3; assay: inhibition of hu Fibrinogen-Ru binding; remark: listed apart in the source
human αvβ3 [3] = target: T2, human αvβ3 (human, UniProt P06756 31-1048; P05106 27-788); assay: inhibition of hu Vitronectin-Ru binding, solid phase
T2 chain 1: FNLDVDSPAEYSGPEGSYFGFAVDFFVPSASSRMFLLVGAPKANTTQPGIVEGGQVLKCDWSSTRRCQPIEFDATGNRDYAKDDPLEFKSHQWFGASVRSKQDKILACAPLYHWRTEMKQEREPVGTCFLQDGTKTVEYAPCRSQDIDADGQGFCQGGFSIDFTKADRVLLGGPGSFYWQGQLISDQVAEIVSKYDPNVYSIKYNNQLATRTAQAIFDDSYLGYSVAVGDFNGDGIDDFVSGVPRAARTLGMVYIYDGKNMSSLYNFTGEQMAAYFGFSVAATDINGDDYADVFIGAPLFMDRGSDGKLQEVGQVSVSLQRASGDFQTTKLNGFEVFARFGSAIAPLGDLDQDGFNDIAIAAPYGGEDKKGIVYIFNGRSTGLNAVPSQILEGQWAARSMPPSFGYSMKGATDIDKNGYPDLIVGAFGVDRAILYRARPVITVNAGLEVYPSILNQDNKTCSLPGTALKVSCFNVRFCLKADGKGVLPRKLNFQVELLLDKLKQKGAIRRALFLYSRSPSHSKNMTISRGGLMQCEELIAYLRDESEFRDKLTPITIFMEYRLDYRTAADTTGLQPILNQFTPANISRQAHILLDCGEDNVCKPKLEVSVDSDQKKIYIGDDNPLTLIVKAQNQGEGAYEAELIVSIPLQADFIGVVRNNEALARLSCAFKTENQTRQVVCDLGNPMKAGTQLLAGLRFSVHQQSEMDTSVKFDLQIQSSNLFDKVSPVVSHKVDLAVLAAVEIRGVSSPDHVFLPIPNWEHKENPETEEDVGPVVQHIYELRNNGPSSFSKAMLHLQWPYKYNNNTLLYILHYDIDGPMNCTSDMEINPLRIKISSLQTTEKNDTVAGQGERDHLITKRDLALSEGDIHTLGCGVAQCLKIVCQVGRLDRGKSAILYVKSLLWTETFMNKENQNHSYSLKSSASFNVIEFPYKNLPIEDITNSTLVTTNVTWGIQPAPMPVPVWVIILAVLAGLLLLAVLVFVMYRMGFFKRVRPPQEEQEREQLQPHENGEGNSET
T2 chain 2: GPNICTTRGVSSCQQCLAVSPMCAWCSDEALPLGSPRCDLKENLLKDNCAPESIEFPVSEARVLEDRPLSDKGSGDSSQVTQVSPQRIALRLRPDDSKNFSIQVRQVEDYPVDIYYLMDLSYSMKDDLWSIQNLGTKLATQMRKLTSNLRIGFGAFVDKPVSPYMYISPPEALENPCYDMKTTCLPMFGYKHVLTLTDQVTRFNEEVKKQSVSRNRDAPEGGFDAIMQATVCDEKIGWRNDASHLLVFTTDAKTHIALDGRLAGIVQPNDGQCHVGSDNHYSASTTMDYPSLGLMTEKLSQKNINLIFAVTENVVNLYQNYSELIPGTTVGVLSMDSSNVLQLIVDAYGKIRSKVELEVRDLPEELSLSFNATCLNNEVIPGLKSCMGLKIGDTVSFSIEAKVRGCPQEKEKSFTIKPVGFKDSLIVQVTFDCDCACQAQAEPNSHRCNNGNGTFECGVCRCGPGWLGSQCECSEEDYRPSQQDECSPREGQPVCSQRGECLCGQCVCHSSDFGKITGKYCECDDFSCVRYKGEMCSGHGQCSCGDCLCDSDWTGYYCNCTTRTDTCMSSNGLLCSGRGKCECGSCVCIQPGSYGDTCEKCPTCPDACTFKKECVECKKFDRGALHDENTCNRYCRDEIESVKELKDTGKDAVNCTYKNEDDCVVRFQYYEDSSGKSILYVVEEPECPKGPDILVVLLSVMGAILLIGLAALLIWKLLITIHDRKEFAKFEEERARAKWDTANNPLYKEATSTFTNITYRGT

human αvβ3 [4] = target: T2, human αvβ3; assay: as above

B1: Echistatin-Fc (Fc fusion)
chain: [human IgG1 Fc cut from this listing]GGGGGECESGPCCRNCKFLKEGTICKRARGDDMDDYCNGKTCDCPRNPHKGPAT
B1 showed an IC50 [1] of 0.0719 nM, a Ki [2] of 0.0359 nM and a Ki (human αvβ3 [3]) of 0.1 nM. The IC50 (human αvβ3 [4]) was 0.127 nM.

From US20020168363A1 (published 2002)
